Assay results: PMC5892938
The list shows a part of the results. At the low end of the ranking, values are background and their order means little.

target: GST-SBP-SLBP (stem-loop binding protein) (UniProt Q14493); assay: targeted RNA Bind-n-Seq; settings: RBNS binding buffer: 25 mM Tris pH 7.5, 150 mM KCl, 3 mM MgCl2, 0.1% Tween, 0.5 mg/mL BSA, 1 mM DTT; 27 nM protein, 750 pM RNA pool; temperature not stated; high values mean tight binding;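 note: DESeq read counts versus GST-SBP nonspecific binding control pulldown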

Sequence | binding signal (log2 fold change)
GGUCACGUCUCAAUCAACUCAUACGAGGGGGGGAAAACCCCUUUACCCUCAAACUCAACAGCUCGCAGUCAAG | 0.382
GGUCACGUCUCAAUCAACUCAAUCUCCAGGGAAAUCCCUGGUAUUCUCAACAGCUCGCAGUCAAG | 0.036
GGUCACGUCUCAAUCAACUCUUCUCCCAGGGAAAACCCUGGCUUAUUCAACAGCUCGCAGUCAAG | -0.247
GGUCACGUCUCAAUCAACUCUAUCCCCAGGGAAAUCCCUGGCAUAUUCAACAGCUCGCAGUCAAG | 0.0134
GGUCACGUCUCAAUCAACUCAUUAGAGGGGGGGAAAACCCCUUUACCCUCAUCCUCAACAGCUCGCAGUCAAG | -0.142
GGUCACGUCUCAAUCAACUCAAUGUCAGGAGUUUUCUCCUGUUUUUUCAACAGCUCGCAGUCAAG | 0.102
GGUCACGUCUCAAUCAACUCAUCCCCCAGGGAAAGCCCUGGUUUAUUCAACAGCUCGCAGUCAAG | 0.0478
GGUCACGUCUCAAUCAACUCAUCUCCAGGAGUUUUCUCCUGCUAAUUCAACAGCUCGCAGUCAAG | -0.0751
GGUCACGUCUCAAUCAACUCAACUUCCAGGGAAAACCCUGGCAUUUUCAACAGCUCGCAGUCAAG | 0.305
GGUCACGUCUCAAUCAACUCAACUCCCAGGGAAACCCCUGGUUAUCUCAACAGCUCGCAGUCAAG | 0.121
GGUCACGUCUCAAUCAACUCAGUCCCCAGGGAAAGCCCUGGUAAAUUCAACAGCUCGCAGUCAAG | -0.347
GGUCACGUCUCAAUCAACUCAUCUCCCAGGGAAAACCCUGGUUUAUUCAACAGCUCGCAGUCAAG | -0.0821
GGUCACGUCUCAAUCAACUCAACUCCAGGAGUUUCCUCCUGUAUAUUCAACAGCUCGCAGUCAAG | -0.0836
GGUCACGUCUCAAUCAACUCAUCGUCCAGGGAAACCCCUGGUUAUCUCAACAGCUCGCAGUCAAG | 0.0188
GGUCACGUCUCAAUCAACUCAUCUCCCAGGGAAAACCCUGGUAUUCUCAACAGCUCGCAGUCAAG | -0.0413
GGUCACGUCUCAAUCAACUCAUUUCCAGGAGUUUACUCCUGUUUACUCAACAGCUCGCAGUCAAG | -0.0247
GGUCACGUCUCAAUCAACUCUAUCCCCAGGGAAAUCCCUGGUAAAUUCAACAGCUCGCAGUCAAG | 0.143
GGUCACGUCUCAAUCAACUCAACUCCAGGAGUUUCCUCCUGCUAAUUCAACAGCUCGCAGUCAAG | 0.0484
GGUCACGUCUCAAUCAACUCUAUCCCAGGAGUUUUCUCCUGCUAACUCAACAGCUCGCAGUCAAG | 0.179
GGUCACGUCUCAAUCAACUCAUUCCCCAGGGAAAGCCCUGGUAAUUUCAACAGCUCGCAGUCAAG | -0.0575
GGUCACGUCUCAAUCAACUCUAGUCCAGGAGUUUUCUCCUGCUUUCUCAACAGCUCGCAGUCAAG | -0.168
